Results taken from PubChem BioAssay AID588453 (National Center for Advancing Translational Sciences (NCATS), 2011).
Out of some 390,000 compounds screened, about 4,000 (1%) were called active. Inconclusive results, whose numbers are uncertain, are shown with a selection of clear calls. The call rests on the fitted dose curve; in most records, active means well fitted inhibition curve with a large enough effect; inconclusive means small, poorly fitted or top-dose-only effect; inactive means no such curve, though single readings can be large or run the other way. Potencies of inconclusive entries are doubtful fits and often do not repeat.

molecular target: Thioredoxin reductase 1, cytoplasmic (Rattus norvegicus) (UniProt O89049); assay: qHTS Assay for Inhibitors of Mammalian Selenoprotein Thioredoxin Reductase 1 (TrxR1): qHTS; details: recombinant rTrxR1, NADPH fluorescence consumption, selenite substrate; series mostly up to 114 µM; activity change, negative = inhibition: at the top concentration; further: nearly all actives have a fitted effect of over 65% in size
Summary of the method: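 Rat TrxR1 (90 nM in the dispensed reagent) was pre-reduced with 400 uM NADPH for 5 min at room temperature, then incubated with compound for 15 min. After 400 uM selenite was added, NADPH fluorescence (Ex 340/Em 450 nm) was followed for 8 min.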
On the % scale 0 is the no-effect control and ±100 the full control effect; potency means the concentration at half of the fitted maximal effect; tags describe the fitted curve by direction and shape.

UniProt O89049, sequence (O89049 whole entry, looked up): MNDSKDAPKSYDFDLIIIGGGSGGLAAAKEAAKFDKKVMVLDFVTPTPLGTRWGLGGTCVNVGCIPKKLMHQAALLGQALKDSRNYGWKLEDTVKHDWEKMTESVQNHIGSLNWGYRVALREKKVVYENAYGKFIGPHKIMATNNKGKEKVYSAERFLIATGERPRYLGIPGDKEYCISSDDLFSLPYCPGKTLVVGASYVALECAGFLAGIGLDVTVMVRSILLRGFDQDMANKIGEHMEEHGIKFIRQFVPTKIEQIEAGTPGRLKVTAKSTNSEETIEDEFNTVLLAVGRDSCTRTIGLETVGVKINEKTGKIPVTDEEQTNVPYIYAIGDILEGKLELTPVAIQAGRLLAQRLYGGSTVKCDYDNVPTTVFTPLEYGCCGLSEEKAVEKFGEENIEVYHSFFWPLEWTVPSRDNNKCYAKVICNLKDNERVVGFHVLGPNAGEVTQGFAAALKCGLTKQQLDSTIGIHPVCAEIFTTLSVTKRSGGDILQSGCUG

| Compound | Potency | activity change, negative = inhibition |
| --- | --- | --- |
| COc1cc(NC(=O)CSc2nnnn2Cc2ccccc2)cc(OC)c1 | inconclusive: 17.8 µM [inhibitor, partial curve, poor fit] | – |
| CC(C(=O)NCc1ccc(Cl)cc1)n1ccc2cc(S(=O)(=O)N3CCCCCC3)ccc21 (stereo not drawn) | – | inactive: 30.8% |
| O=C1CN(C(=O)COC(=O)/C=C/c2ccc(OC(F)F)cc2)c2ccccc2N1 | – | inactive: 4.26% |
| N#CC1=C(c2ccccc2)/C(=C/c2ccccc2)OC1=O | inconclusive: 44.7 µM [inhibitor, partial curve, poor fit] | – |
| Cc1ccc(-n2c3nc(=O)[nH]c(=O)c-3cc3c(C)nn(-c4ccccc4)c32)cc1Cl | inconclusive: 100 µM [inhibitor, single point] | – |
| Cc1cc2ccccc2n1CCNC(=O)c1ccc(Br)o1 | active: 10 µM | – |
| Cc1ccc(Nc2nc(=O)c3cccnc3s2)cc1 | – | inactive: 10.1% |
| CS(=O)(=O)c1ccc(C(=O)Nc2cc(S(C)(=O)=O)ccc2Cl)cc1 | inconclusive: 89.1 µM [inhibitor, single point] | – |
| CSC1=NS(=O)(=O)c2c(C)nn(C)c2S1 | inconclusive: 39.8 µM [inhibitor, partial curve] | – |
| CCOC(=O)C1=C(C)OC(N)=C(C#N)C1c1ccc(OC)c(C)c1OC (stereo not drawn) | inconclusive: 50.1 µM [inhibitor, partial curve, poor fit] | – |
| COc1cc(CNc2ccc(N3CCCC3)cc2)ccc1OCc1ccccc1F | active: 10 µM | – |
| Cc1ccc2nc(Cl)c3nnnn3c2c1 | active: 8.91 µM | – |
| FC(F)(F)c1ccccc1CN1CCCC(N2CCN(c3ccccc3)CC2)C1 (stereo not drawn) | inconclusive: 31.6 µM [inhibitor, partial curve, poor fit] | – |
| CCN1CCN(C(=O)c2cnn(-c3cccc(Cl)c3)c2C2CCN(C(=O)OC(C)(C)C)CC2)CC1 | inconclusive: 56.2 µM [inhibitor, partial curve, poor fit] | – |
| CCCN(Cc1cc2ccc(C)cc2[nH]c1=O)C(=O)c1ccccn1 | – | inactive: -1.12% [at 57.1 µM] |
| O=C(N/N=C/c1ccc([N+](=O)[O-])cc1)c1cccs1 | – | inactive: 1.6% |
| Cc1[nH]n(-c2ccccc2)c(=O)c1N=Nc1c(Cl)cccc1Cl | – | inactive: 9.12% |
| O=C(O)CCn1c2ccccc2c2nc3ccccc3nc21 | inconclusive: 50.1 µM [inhibitor, single point] | – |
| Cc1ccc(NC(=O)CCS(=O)(=O)c2cc3c(cc2Cl)NC(=O)CO3)cc1 | – | inactive: 20.8% |
| CCc1c(C)sc(NC(=O)c2ccco2)c1C(=O)N1CCCCC1 | inconclusive: 44.7 µM [inhibitor, single point] | – |
| Cc1ccc(CNC(=O)Nc2ccc(F)cc2F)n1C | inconclusive: 89.1 µM [inhibitor, single point] | – |
| N=c1n(CC(=O)c2ccc([N+](=O)[O-])cc2)c2ccccc2n1Cc1ccccc1 | – | inactive: -1.06% |
| O=C(N/N=C/c1cccn1-c1ccc([N+](=O)[O-])cc1)C(O)c1ccccc1 (stereo not drawn) | – | inactive: 5.74% [at 57.1 µM] |
| CCOC(=O)/C=C1\Nc2ccccc2OC1=O | inconclusive: 35.5 µM [inhibitor, partial curve] | – |
| Cc1nc2sc3c(c2c(=O)[nH]1)CCCC3 | – | inactive: 13.5% |

| Compound | Potency | activity change, negative = inhibition |
| --- | --- | --- |
| Cc1ccc(S(=O)(=O)OCCC2=CC(=O)CCN2Cc2ccccc2)cc1 | inconclusive: 89.1 µM [inhibitor, partial curve, poor fit] | – |
| Cc1ccc(NC(=O)c2cc(N3C(=O)C=CC3=O)ccc2Cl)cc1C | active: 3.16 µM | – |
| O=C(COC(=O)C1CCN(S(=O)(=O)c2cc([N+](=O)[O-])ccc2Cl)CC1)Nc1ncc(Cl)cc1Cl | inconclusive: 39.8 µM [inhibitor, partial curve] | – |
| CCc1cc(C(c2cccc(OC)c2)N2CCOCC2)c(NC(=O)c2ccccc2)s1 (stereo not drawn) | inconclusive: 3.55 µM [inhibitor, full curve] | – |
| CC1(C)CC(=O)C(C(c2cccnc2)C2C(=O)CC(C)(C)CC2=O)C(=O)C1 | inconclusive: 35.5 µM [inhibitor, partial curve] | – |
| CSc1nc(-c2ccco2)nn1C(=O)c1ccco1 | inconclusive: 15.8 µM [inhibitor, full curve] | – |
| COc1ccc(-c2nc(CS(=O)(=O)CC(=O)NCc3cccc(F)c3)c(C)o2)cc1 | – | inactive: 15.7% [at 57.1 µM] |
| O=C(CSc1nnc(-c2ccc(Br)o2)n1Cc1ccccc1)c1ccccc1F | inconclusive: 44.7 µM [inhibitor, partial curve] | – |
| CCCSc1nnc(N2C(=O)C(O)=C(C(=O)c3ccco3)C2c2ccccc2F)s1 (stereo not drawn) | – | inactive: -32.7% |
| CCn1c(-c2ccco2)nc2ccccc21 | inconclusive: 22.4 µM [inhibitor, full curve] | – |
| COCCNc1oc(-c2ccccc2Cl)nc1S(=O)(=O)c1ccc(C)cc1 | inconclusive: 8.91 µM [inhibitor, full curve] | – |
| COc1ccccc1Cn1cc(C(=O)c2ccc(C)cc2)c(=O)c2cc(C)ccc21 | – | inactive: 20.9% |
| CCc1ccccc1Nc1nn2c(=O)c3ccc(C(=O)NCc4ccccc4OC)cc3nc2s1 | inconclusive: 100 µM [inhibitor, single point] | – |
| Cc1c(CCC(=O)O)c(=O)oc2cc(OCc3ccccc3F)ccc12 | inconclusive: 25.1 µM [inhibitor, single point] | – |
| COc1ccc(-c2cc(=NC(CC(C)C)C(=O)O)c3cc(C)ccc3o2)cc1 (stereo not drawn) | inconclusive: 89.1 µM [inhibitor, single point] | – |
| COc1ccc(Br)cc1CNC(=O)CCSCc1ccc(C)cc1 | – | inactive: 21.2% [at 57.1 µM] |
| COc1cc(NC(=S)NCCCN2CCOCC2)c(OC)cc1NC(=O)c1ccco1 | inconclusive: 56.2 µM [inhibitor, partial curve, poor fit] | – |
| O=[N+]([O-])c1cccc(/C=N/n2c(-c3cccnc3)n[nH]c2=S)c1 | inconclusive: 79.4 µM [inhibitor, single point] | – |
| O=C(O)Cc1sc(Nc2ccccc2)nc1-c1ccccc1 | – | inactive: 4.57% |
| Cc1cccc(N(Cc2ccccc2)C(=O)CCl)c1 | active: 8.91 µM | – |
| CC(=O)c1ccccc1NC(=O)COC(=O)/C=C/c1ccc(C)o1 | – | inactive: 20% [at 57.1 µM] |
| CC1Cc2cc(/C=C3/SC(=S)NC3=O)ccc2O1 (stereo not drawn) | – | inactive: 0.858% [at 57.1 µM] |
| COc1ccccc1S(=O)Cc1ccc(C(=O)O)o1 (stereo not drawn) | inconclusive: 28.2 µM [inhibitor, full curve, poor fit] | – |
| CCC(=O)N(Cc1ccc(S(N)(=O)=O)cc1)C1CC(=O)N(c2ccc(OC)cc2)C1=O (stereo not drawn) | inconclusive: 63.1 µM [inhibitor, single point] | – |
| COC(=O)c1ccc(CSc2ccccc2C)o1 | inconclusive: 56.2 µM [inhibitor, single point] | – |

| Compound | Potency | activity change, negative = inhibition |
| --- | --- | --- |
| CC1CCCN(C(=O)CSc2nnc(-c3cccs3)o2)C1 (stereo not drawn) | inconclusive: 39.8 µM [inhibitor, single point] | – |
| O=C(NC1CC1)c1ccc(N2CCCCC2)c([N+](=O)[O-])c1 | inconclusive: 89.1 µM [inhibitor, partial curve, poor fit] | – |
| N#CC1=C2N=C(N)c3ccccc3N2C2=C(C(=O)CCC2)C1c1cccc(Cl)c1 (stereo not drawn) | inconclusive: 39.8 µM [inhibitor, single point] | – |
| Nc1[nH]nc2ncc3cc4ccccc4nc3c12 | – | inactive: 25.7% [at 57.1 µM] |
| Cc1cc(NS(=O)(=O)c2ccccc2)c(C)c(Cl)c1O | inconclusive: 44.7 µM [inhibitor, partial curve, poor fit] | – |
| COC(=O)c1ccccc1NC(=S)NC(=O)c1ccccc1C | active: 11.2 µM | – |
| COc1ccc(-c2cc(C(=O)NC(C(=O)O)C(C)C)c(C)o2)cc1OC (stereo not drawn) | inconclusive: 50.1 µM [inhibitor, partial curve] | – |
| CC(c1ccccc1)N1C(=O)CC(Sc2ncccc2C(=O)O)C1=O (stereo not drawn) | inconclusive: 50.1 µM [inhibitor, partial curve] | – |
| CC(C#Cc1c([C@@H](C)Oc2ccccc2)nnn1Cc1ccccc1)Oc1ccccc1 (stereo partly drawn) | inconclusive: 50.1 µM [inhibitor, partial curve] | – |
| NNC(=O)c1ccc(Cn2cc(Br)c(N)n2)cc1 | – | inactive: 6.72% [at 57.1 µM] |
| CC(C)c1ccc(NC(=O)C(c2ccccc2)N(C)C(=O)CCc2c[nH]c3ccccc23)cc1 (stereo not drawn) | inconclusive: 25.1 µM [inhibitor, partial curve] | – |
| CCCn1c(SCC(=O)NCc2ccco2)nnc1C(C)C | inconclusive: 28.2 µM [inhibitor, single point] | – |
| COc1cc(CN2CCN(Cc3ccc(SC)cc3)CC2)cc(OC)c1O | inconclusive: 100 µM [inhibitor, single point] | – |
| O=C(Cc1ccc(O)cc1)NC1CCCCCC1 | – | inactive: 9.95% |
| Cc1cc(NC(=O)c2ccccc2)ncc1NC(=O)c1ccco1 | inconclusive: 63.1 µM [inhibitor, single point] | – |
| O=C(C[n+]1ccncc1)c1ccc2c(c1)CCCC2 | inconclusive: 70.8 µM [inhibitor, partial curve] | – |
| Cc1ccc(/C(=N/Nc2ncnc3ccccc23)C(=O)O)cc1 | – | inactive: -19.3% |
| CCCOC(=O)c1c(-c2ccc(OC)cc2)oc2ccc(-c3ccc(OC)nc3)cc12 | inconclusive: 39.8 µM [inhibitor, single point] | – |
| Cc1ccccc1-n1ncc2c([N+](=O)[O-])cc([N+](=O)[O-])cc21 | inconclusive: 39.8 µM [inhibitor, single point] | – |
| CCOC(=O)N1CCN(C(=O)CN(c2cccc(Cl)c2)S(=O)(=O)c2ccccc2)CC1 | – | inactive: -26.4% |
| CCOc1ccc(N2C(=O)/C(=C/c3cccs3)N(CC(=O)OC)C2=S)cc1 | – | inactive: 12.2% |
| CCOC(=O)CSc1nc2cc3c(cc2c(=O)n1CCCC(=O)NCCc1ccc(OC)c(OC)c1)OCO3 | – | inactive: 14.5% [at 57.1 µM] |
| O=S(=O)(c1ccccc1C(F)(F)F)N1CCN(c2nc(-c3cccs3)nc3ccccc23)CC1 | – | inactive: 41.1% |
